The whole screen tested about 410,000 compounds, of which about 6,400 (1.6%) were called active. This list was built around the results that the source calls inconclusive (neither active nor inactive); the mix of calls is not that of the screen. Calls come from the whole dose curve; as a rule, active = well fitted inhibition curve with a large enough effect; inconclusive = small, poorly fitted or top-dose-only effect; inactive = no such curve, though single readings can be large or run the other way. Potencies of inconclusive entries are left out as doubtful fits.
These compounds were tested against Glucagon-like peptide 1 receptor (Homo sapiens) (UniProt P43220) (assay: qHTS of GLP-1 Receptor Inverse Agonists (Inhibition Mode)). Conditions: HEK293 GLP-1R CRE-luciferase, luminescence, 24 h, GLP-1R form is constitutively active; activity change, negative = inhibition: at 38.3 µM (top of the series) unless noted.
Chain of UniProt P43220 (P43220 whole entry, looked up): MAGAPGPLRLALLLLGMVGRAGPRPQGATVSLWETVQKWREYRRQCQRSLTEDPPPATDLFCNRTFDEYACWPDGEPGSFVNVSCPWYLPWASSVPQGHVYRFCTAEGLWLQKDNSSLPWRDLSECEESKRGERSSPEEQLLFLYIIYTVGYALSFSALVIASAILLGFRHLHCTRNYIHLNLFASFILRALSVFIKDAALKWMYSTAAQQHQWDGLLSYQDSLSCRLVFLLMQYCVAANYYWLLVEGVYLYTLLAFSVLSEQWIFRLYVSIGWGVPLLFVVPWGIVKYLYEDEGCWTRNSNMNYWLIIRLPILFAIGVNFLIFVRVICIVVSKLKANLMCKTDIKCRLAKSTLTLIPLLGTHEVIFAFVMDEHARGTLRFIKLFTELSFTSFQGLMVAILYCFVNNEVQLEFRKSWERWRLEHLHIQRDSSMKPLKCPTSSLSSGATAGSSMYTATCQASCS
Method in brief: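 Assay principle: reduced luminescence from a cAMP-responsive reporter in HEK293 cells co-expressing a constitutively active GLP-1R. Conditions: 24 hr compound incubation, 37 deg C, 5% CO2.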
% is set by controls: 0 for no effect and ±100 for the full control effect; potency is the fitted concentration of half-maximal effect; tags give direction and shape of the fitted curve.
Note: nearly all actives have a fitted effect of over 55% in size.

Row | Structure (SMILES) | Potency | activity change, negative = inhibition
1 | O=C(Nc1ccc(F)cc1)C(Sc1nc2ccccc2[nH]1)c1ccccc1 (stereo not given) | inconclusive [inhibitor, partial curve] | 
2 | Cc1cc(C)cc(C(=O)Nc2ccc(N3CCCC3)cc2)c1 | inconclusive [inhibitor, single point] | 
3 | COc1ccc(NC(=O)C#Cc2ccccc2)cc1 | inconclusive [inhibitor, single point] | 
4 | CN(c1ccccc1)S(=O)(=O)c1cccc(C(=O)NC2CCCCC2)c1 | inconclusive [inhibitor, partial curve, poor fit] | 
5 | CCc1nc2c(OCC=C(C)C)cccn2c1N(C)C(=O)c1ccc(OC)cc1 | inconclusive [inhibitor, partial curve, poor fit] | 
6 | O=C(NCCc1c[nH]c2ccccc12)c1ccc2c(c1)OCO2 | inconclusive [inhibitor, single point] | 
7 | CCN1CCN(S(=O)(=O)c2ccc(Cl)c(C(=O)Nc3ccccc3N3CCCC3)c2)CC1 | inconclusive [inhibitor, partial curve, poor fit] | 
8 | O=C(CCC1N=C2c3ccccc3N=C(SCc3ccccc3Cl)N2C1=O)NCc1cccs1 (stereo not given) | inconclusive [inhibitor, partial curve, poor fit] | 
9 | O=[N+]([O-])c1ccc(N=Nc2ccc(O)c3ccccc23)cc1 | inconclusive [inhibitor, full curve, poor fit] | 
10 | COc1ccc(C(C(=O)NCc2ccccc2)N(Cc2ccc3c(c2)OCO3)C(=O)c2cnccn2)cc1 (stereo not given) | inconclusive [inhibitor, full curve, poor fit] | 
11 | O=C(NCCc1ccc(F)cc1)C(=O)NCC1CCCN1S(=O)(=O)c1cccs1 (stereo not given) | inconclusive [inhibitor, partial curve, poor fit] | 
12 | CC(C)(C)c1ccc(C(=O)CCC(=O)NCc2ccccc2)cc1 | active: 7.94 µM | 
13 | CC(C)N(C(=O)COC(=O)c1cccc(N(C)C)c1)c1ccccc1 | active: 4.47 µM | 
14 | CCN(CC)CCN(C(=O)c1ccc(Br)s1)c1nc2cc3c(cc2s1)OCCO3 | inconclusive [inhibitor, full curve, poor fit] | 
15 | Cc1cccc(C(C)C)c1NC(=O)C1CN(S(=O)(=O)c2ccccc2)CCN1S(=O)(=O)c1ccccc1 (stereo not given) | inconclusive [inhibitor, partial curve, poor fit] | 
16 | Cc1cccc([C@@H]2C[C@H]3CN(Cc4cccc(Cl)c4)C(=O)[C@]34CCCN24)n1 | inconclusive [inhibitor, partial curve, poor fit] | 
17 | O=S(=O)(O)c1cc(O)c2c(O)c(N=Nc3cc(Cl)ccc3O)c(S(=O)(=O)O)cc2c1 | inconclusive [inhibitor, partial curve, poor fit] | 
18 | CCc1ccccc1NC(=O)C1CC(c2ccc(OC)cc2)=NO1 (stereo not given) | inconclusive [inhibitor, single point] | 
19 | COc1ccc(-n2cc(-c3ccccc3)[n+]3c2CCCCC3)cc1 | inconclusive [inhibitor, single point] | 
20 | CCOC(=O)CCc1c(C(=O)OCC)[nH]c(CC)c1C(=O)OCc1ccccc1 | inconclusive [inhibitor, partial curve, poor fit] | 

Row | Structure (SMILES) | Potency | activity change, negative = inhibition
21 | COc1ccc(CN(C(=O)c2nsc(Cl)c2Cl)C(C(=O)NC2CCCC2)c2ccc(C)cc2)cc1 (stereo not given) | inconclusive [inhibitor, partial curve, poor fit] | 
22 | Cc1cc(-c2ccccc2)nc2[n+]1CCN2C |  | inactive: -3.81%
23 | O=C(CCCSc1nc2ccccc2[nH]1)NCc1ccccc1Cl | inconclusive [inhibitor, partial curve, poor fit] | 
24 | Cc1ccc(S(=O)(=O)N2CCCCC2CCNC(=O)C(=O)Nc2ccccc2F)cc1 (stereo not given) | inconclusive [inhibitor, full curve, poor fit] | 
25 | COc1ccc(CN(C)C(C)C(=O)Nc2cccc3ccccc23)cc1 (stereo not given) | inconclusive [inhibitor, single point] | 
26 | Fc1ccc(N2N=C(c3cccs3)CC2c2ccco2)c(F)c1 (stereo not given) | inconclusive [inhibitor, partial curve, poor fit] | 
27 | C=C1CCN(c2ccc(C(=O)NCc3ccc(OC)cc3)cc2[N+](=O)[O-])CC1 | inconclusive [inhibitor, single point] | 
28 | CC(C)CC(N)c1csc(Nc2ncccn2)n1 (stereo not given) | inconclusive [inhibitor, partial curve, poor fit] | 
29 | OC1(c2cccc(C(F)(F)F)c2)CCN(c2ncnc3c2[nH]c2ccc(F)cc23)CC1 | inconclusive [inhibitor, full curve, poor fit] | 
30 | COc1ccc([C@H]2C[C@H](O)[C@@H](n3cc(COC(=O)c4ccccc4)nn3)CN2C(=O)C2CCCCC2)cc1 | inconclusive [inhibitor, single point] | 
31 | CSc1ccccc1OCc1cc(C(=O)N2CCN(c3ncccn3)CC2)no1 |  | inactive: -23.8%
32 | O=C(/C=C/c1ccccc1)N(Cc1ccc(Cl)cc1)C1CCS(=O)(=O)C1 (stereo not given) | inconclusive [inhibitor, partial curve, poor fit] | 
33 | CC(C)(C)NC(=O)Cn1cc(S(=O)(=O)Cc2ccc(F)cc2)c2ccccc21 |  | inactive: -15.2%
34 | Cc1cc(C)cc(NC(=O)CSc2nccn2Cc2ccco2)c1 | inconclusive [inhibitor, single point] | 
35 | CC1CCN(c2ccc(-c3cccc(NS(=O)(=O)c4ccc(Cl)s4)c3)nn2)CC1 | inconclusive [inhibitor, single point] | 
36 | CN(C)/C=C/C(=O)c1ccc2noc(-c3ccc(F)cc3)c2c1 | inconclusive [inhibitor, partial curve, poor fit] | 
37 | O=C(C1CCCC1)N1CCN=C1SCc1cccc([N+](=O)[O-])c1 | inconclusive [inhibitor, partial curve, poor fit] | 
38 | COc1cc(Cl)c(NC(=O)c2cc(S(=O)(=O)N3CCOCC3)cn2C)c(OC)c1 |  | inactive: 29.9%
39 | Cc1ccc(S(=O)(=O)N2CCCC2CNC(=O)c2ccc3c(c2)OCO3)cc1 (stereo not given) | inconclusive [inhibitor, full curve, poor fit] | 
40 | CCCCN(C(=O)c1cc(S(=O)(=O)N2CCCCCC2)ccc1OC)c1ccccc1 | inconclusive [inhibitor, single point] | 

Row | Structure (SMILES) | Potency | activity change, negative = inhibition
41 | C#CCSc1nc2sc3c(c2c(=O)n1-c1cccc(OC)c1)CCN(C(C)=O)C3 |  | inactive: 13.2%
42 | CCCC1=C(C(=O)OCC)C(c2cc(Cl)cc(OC)c2OCC(=O)OCC)NC(=O)N1 (stereo not given) | inconclusive [inhibitor, single point] | 
43 | C=CCNC(=O)c1c(O)c2cccc3c2n(c1=O)CCC3 | inconclusive [inhibitor, full curve, poor fit] | 
44 | CC(C)OC(=O)/C(C#N)=C/c1c[nH]c2ccccc12 |  | inactive: -22.6%
45 | O=C(N/N=C/c1cn(Cc2ccccc2)c2ccccc12)c1ccncc1 | inconclusive [inhibitor, full curve] | 
46 | Cc1ccc(S(=O)(=O)Nc2ccc(-c3ccc(N4CCCCCC4)nn3)cc2)cc1C |  | inactive: 6.22%
47 | CC(C)c1nc(CNC(=O)c2cc(COc3c(F)cccc3F)on2)cs1 | inconclusive [inhibitor, partial curve, poor fit] | 
48 | CC1CCCN(C(=S)Nc2ccc(Nc3ccccc3)cc2)C1 (stereo not given) |  | inactive: 4.81% [at 7.66 µM]
49 | COc1ccc(NC(=O)Cn2c(=O)n(-c3cccc(C)c3)c(=O)c3c2c2cc(C)ccc2n3C)cc1OC |  | inactive: 3.17%
50 | CCCCN(C(C)=O)c1c(N)n(CCC)c(=O)n(CC(=O)Nc2cc(Cl)cc(Cl)c2)c1=O | inconclusive [inhibitor, single point] | 
51 | CCOC(=O)c1c(NC(=O)c2ccccc2Cl)sc2c1CCc1ccccc1-2 | inconclusive [inhibitor, partial curve, poor fit] | 
52 | Cc1ccc(F)cc1NC(=O)CCc1c(C)nn(-c2ccc(N3CCCCC3)nn2)c1C | inconclusive [inhibitor, single point] | 
53 | COc1ccc(CN2CCC(CO)(Cc3ccccc3)CC2)cc1Cn1cccn1 | inconclusive [inhibitor, partial curve, poor fit] | 
54 | O=C(NC1CCCCC1)C(c1ccc(F)cc1)N(Cc1ccco1)C(=O)c1csnn1 (stereo not given) | inconclusive [inhibitor, partial curve, poor fit] | 
55 | CCCCC1(C)Cc2ccccc2C(=S)N1 (stereo not given) |  | inactive: -29.5%
56 | CCCCCCCCN1C(=O)[C@H](CC(=O)N2CCN(C(=O)c3ccco3)CC2)C[C@@]2(C(=O)OC)CCCCC=C12 | inconclusive [inhibitor, single point] | 
57 | CN(C)CCCN(C(=O)c1ccc(Cl)s1)c1nc2cc3c(cc2s1)OCO3 | inconclusive [inhibitor, full curve, poor fit] | 
58 | Cc1cc(=O)[nH]c(Nc2ccc(C(=O)OC(C)C)cc2)n1 | inconclusive [inhibitor, partial curve] | 
59 | CCCCNc1c(-c2ccc(SC3CCCCC3)cc2)nc2ccccn12 | inconclusive [inhibitor, single point] | 
60 | CC1CCN(C(=S)c2cn(Cc3ccc(F)cc3)c3ccccc23)CC1 | active: 7.08 µM | 
